Test results published in article PMC4336329 (PLoS ONE, 2015).
Out of some 310,000 compounds screened, about 14,000 (4.5%) showed an effect of 50% or more. Effects have a minus sign here. This is one part of the list.

These compounds were tested against human ether-à-go-go-related gene (hERG) potassium channel (human, UniProt Q12809) (assay: primary screen, population patch clamp on CHO cells stably expressing hERG).
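Also: peak tail current of the secondary pulse compared with the same well before compound.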

human ether-à-go-go-related gene (hERG) potassium channel, sequence (Q12809 whole entry, looked up): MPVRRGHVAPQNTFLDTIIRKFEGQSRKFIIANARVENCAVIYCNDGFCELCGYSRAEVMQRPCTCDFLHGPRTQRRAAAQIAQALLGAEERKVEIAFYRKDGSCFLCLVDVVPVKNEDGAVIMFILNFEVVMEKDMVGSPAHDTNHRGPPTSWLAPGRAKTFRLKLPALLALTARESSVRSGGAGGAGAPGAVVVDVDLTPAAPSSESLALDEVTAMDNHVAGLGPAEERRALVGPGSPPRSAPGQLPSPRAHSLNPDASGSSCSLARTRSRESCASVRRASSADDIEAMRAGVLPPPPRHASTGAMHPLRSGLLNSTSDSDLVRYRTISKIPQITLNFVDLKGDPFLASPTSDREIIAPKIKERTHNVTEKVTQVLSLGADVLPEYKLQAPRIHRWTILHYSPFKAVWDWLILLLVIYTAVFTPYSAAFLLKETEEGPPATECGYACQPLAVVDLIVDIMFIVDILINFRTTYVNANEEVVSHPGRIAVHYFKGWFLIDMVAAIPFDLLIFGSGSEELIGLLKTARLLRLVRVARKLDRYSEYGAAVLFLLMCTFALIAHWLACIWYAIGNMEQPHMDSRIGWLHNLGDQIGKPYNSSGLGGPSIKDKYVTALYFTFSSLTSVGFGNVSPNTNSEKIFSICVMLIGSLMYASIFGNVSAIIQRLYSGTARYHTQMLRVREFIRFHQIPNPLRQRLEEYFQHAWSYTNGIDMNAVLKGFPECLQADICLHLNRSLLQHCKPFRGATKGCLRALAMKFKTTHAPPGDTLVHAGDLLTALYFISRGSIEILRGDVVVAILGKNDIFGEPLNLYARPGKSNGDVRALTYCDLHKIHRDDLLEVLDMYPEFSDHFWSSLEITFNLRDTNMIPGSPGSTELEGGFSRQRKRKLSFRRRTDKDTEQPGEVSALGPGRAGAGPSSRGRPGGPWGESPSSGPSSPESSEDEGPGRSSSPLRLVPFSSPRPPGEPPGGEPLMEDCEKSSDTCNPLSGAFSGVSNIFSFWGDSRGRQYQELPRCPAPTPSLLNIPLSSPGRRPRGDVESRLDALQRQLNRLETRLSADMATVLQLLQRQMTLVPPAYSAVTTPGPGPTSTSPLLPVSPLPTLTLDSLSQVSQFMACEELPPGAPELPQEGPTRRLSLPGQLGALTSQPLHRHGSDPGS

| Structure (SMILES) | hERG current change (%, negative = inhibition) at 10uM [%] |
| --- | --- |
| Cc1nc2ncnn2c(N2CCN(c3cccc(C(F)(F)F)c3)CC2)c1C | -64.1 |
| COc1ccc(NC(=O)COc2cccc(-n3cnnn3)c2)cc1Cl | 24 |
| COCCCNC(=O)C1CCCN(S(=O)(=O)c2cccc3nsnc23)C1 (centres unmarked) | -0.124 |
| CC(C)(C)C(C(=O)n1cccc1C#N)c1ccccc1 (centres unmarked) | 6.3 |
| O=C(CSc1nnc(-c2ccc3c(c2)OCO3)o1)Nc1ncc(Cl)cc1Cl | -5.9 |
| COc1cccc(CNC(=O)CCNS(=O)(=O)c2cccc3nonc23)c1 | 12.4 |
| Oc1c(Cl)cc(Cl)cc1C1Nc2ccccc2-n2cccc21 (centres unmarked) | 12.7 |
| CC12CCC(=O)N1C(C(=O)Nc1nnc(SCc3ccccc3)s1)CS2 (centres unmarked) | -4.56 |
| Cc1cc(C)n(C(=O)c2ccncc2)n1 | 15.8 |
| COc1ccc(OC)c(-c2csc(NC(=O)CSCc3c(C)noc3C)n2)c1 | -6.01 |
| COc1cccc(OC)c1C(=O)OCC(=O)NC1CCCCCC1 | -2.11 |
| COc1cccc(C2C(C(=O)NCc3ccccc3)=C(C)Nc3ncnn32)c1 (centres unmarked) | -11.3 |
| CN(CCOc1ccc(Cl)cc1)C(=O)c1cc([N+](=O)[O-])ccc1N1CCOCC1 | -66.7 |
| Fc1ccc(NC2=NCCS2)cc1Cl | -1.62 |
| O=C(CSc1nnc2ccccn12)NCc1cccs1 | 21.4 |
| Cc1[nH]c2ccccc2c1SCc1n[nH]c(=S)n1C | 19.3 |
| COc1ccc(CNCc2cccc(C)c2)cc1.O=C(O)C(=O)O | -15.2 |
| CCOc1ccccc1N(C(=O)Cn1nnnc1-c1ccc(C)o1)C(CC)C(=O)NC(C)(C)C (centres unmarked) | -19.7 |
| c1ccc(-n2cccc2)c(N2CCCCC2)c1 | 3.76 |

| Structure (SMILES) | hERG current change (%, negative = inhibition) at 10uM [%] |
| --- | --- |
| CC(CN1CCN(C)CC1)OC(=O)c1ccccc1.Cl (centres unmarked) | 7.83 |
| O=C(CSc1nc2ccccc2n1S(=O)(=O)c1cccc([N+](=O)[O-])c1)NCCc1ccccc1 | -7.8 |
| O=C(NNC(=O)c1ccc(NC(=O)C2CC2)cc1)c1ccc(F)cc1 | 4.27 |
| C[C@H](NC(=O)C1CCN(S(=O)(=O)c2ccccc2)CC1)C(=O)NCc1ccc(Cl)c(Cl)c1 | 9.58 |
| CCCCn1c(N)c(N(CCOC)C(=O)COC(=O)CCOc2ccc(C)cc2)c(=O)[nH]c1=O | -21.9 |
| Cc1ccc(N2CC(C(=O)Nc3nccs3)CC2=O)cc1 (centres unmarked) | -5.15 |
| Clc1ccc2nncn2n1 | 10.8 |
| O=C(Nc1ccnn1C1CCN(C(=O)c2ccc(F)c(Cl)c2)CC1)C1CC1 | 3.98 |
| CC(C)(C)NC(=O)C(OC(=O)c1ccco1)c1ccccc1F (centres unmarked) | -1.43 |
| S=c1[nH]nc(-c2ccccn2)n1/N=C/c1cccs1 | 5.73 |
| COc1ccc(CCN=C(N)NS(=O)(=O)c2ccc3ccccc3c2)cc1 | 7.75 |
| CCC(C)(C)NC(=O)C1CCCN(S(=O)(=O)c2ccc3c(c2)CC(C)N3C(=O)C2CC2)C1 (centres unmarked) | -8.29 |
| Cc1ccc(S(=O)(=O)N2CCN(C(=O)COC(=O)Cc3ccc(Cl)cc3)CC2)c(C)c1 | -5.7 |
| Cc1ccc(C2(C)NC(=O)N(CC(=O)N(Cc3ccccc3)C(C)(C)C)C2=O)cc1 (centres unmarked) | -1.1 |
| O=C(CSc1c(F)c(F)cc(F)c1F)Nc1ccc(C2SCCS2)cc1 | 0.0732 |
| CCOC(=O)N1CCN(C2CC(=O)N(c3ccc(F)cc3)C2=O)CC1 (centres unmarked) | -8.16 |
| CC(=O)N(C(C)=O)S(=O)(=O)c1ccc(N=NN2CCCCC2)cc1 | 7.82 |
| COc1ccc(CC2(CCc3ccncc3)C(=O)NC(=O)NC2=O)cc1 | 22.5 |
| CC(C)(C)c1ccc(O)c(/C=N\O)c1 | 7.65 |

| Structure (SMILES) | hERG current change (%, negative = inhibition) at 10uM [%] |
| --- | --- |
| CN(C(=O)Cn1cccc1C1=NC(c2ccccc2)CO1)c1ccccc1 (centres unmarked) | -26.6 |
| CCOC(=O)Cn1nc(-c2ccccc2)c2cnc3ccc(C)cc3c21 | 15.7 |
| COc1ccc(OC)c(S(=O)(=O)N(C)CC(=O)N2CCc3ccccc3C2)c1 | -35.1 |
| CC[n+]1c(C)sc2c(C)cc(C)cc21.[I-] | 21.6 |
| COc1ccc(NC2CCCN(C(=O)CCN3CCOCC3)C2)cc1 (centres unmarked) | 12.1 |
| CCOc1ccc(N2C(=O)/C(=C\c3ccccc3OC)S(=O)(=O)C2c2cccc([N+](=O)[O-])c2)cc1 (centres unmarked) | 5.99 |
| COc1cc(OC)c(NS(=O)(=O)c2cc(Br)cnc2N)cc1Cl | -3.84 |
| Oc1ccc(Br)cc1-c1cc(-c2ccc(Cl)cc2)n[nH]1 | 7.99 |
| Cc1ccc(S(=O)(=O)C2(C(=O)O)CCCC2)cc1C | 18.9 |
| COc1cc(SC)ccc1C(=O)OCC(=O)N1CCN(C(C)=O)CC1 | -16.4 |
| COC(=O)[C@H](Cc1ccccc1)NC(=O)c1cc(COc2c(F)cccc2F)on1 | 1.38 |
| CCOC(=O)c1ccc(N2CCN(c3cc(C)ccc3C)CC2)c(N)c1 | 16.6 |
| COc1cccc(C(=O)NN2C(=S)N(c3ccccc3)C(=O)C2CC(N)=O)c1 (centres unmarked) | 16.2 |
| CC(C)C(NS(=O)(=O)c1ccc2c(c1)OCCCO2)C(=O)O (centres unmarked) | 14.9 |
| Cn1c(C(=O)N2CCN(c3ccc(F)cc3)CC2)cc2ccccc21 | -3.67 |
| COC(=O)Nc1nnc(CCc2ccccc2)s1 | 5.32 |
| C=C1[C@@H](C)[C@H]2[C@H](Cc3ccccc3)NC(=O)[C@]23OC(=O)/C=C/[C@H](O)CCC[C@@H](C)C/C=C/[C@H]3[C@@H]1O | 7.39 |
| COc1ccccc1CN1CC(C(=O)N2CCCCCCC2)CCC1=O (centres unmarked) | 3.22 |
